32 sequences from PMC12820563, “FoxP3 forms a head-to-head dimer in vivo and stabilizes its multimerization on adjacent microsatellites” can be followed below.

This is one part of the list.

The test concerns the target T1, MBP-FoxP1dN (Mus musculus, UniProt P58462 326-579).
T1 sequence: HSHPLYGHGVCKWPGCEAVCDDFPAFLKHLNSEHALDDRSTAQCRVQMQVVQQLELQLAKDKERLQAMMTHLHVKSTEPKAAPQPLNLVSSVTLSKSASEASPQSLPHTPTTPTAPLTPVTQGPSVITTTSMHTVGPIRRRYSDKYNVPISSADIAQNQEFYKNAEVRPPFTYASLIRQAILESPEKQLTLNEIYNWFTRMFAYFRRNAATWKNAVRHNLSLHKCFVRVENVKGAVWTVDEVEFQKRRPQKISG
Kind of test: PD-seq (MBP pull-down with sequencing); 20 mM Tris-HCl pH 7.5, 100 mM NaCl, 1.5 mM MgCl2, 0.4 uM protein, 0.1 uM dsDNA library, 30 min, room temperature, amylose pull-down; high values mean tight binding. As to conditions: protein: recombinant; tags: His6-MBP; chain copies: 2; dsDNA, one strand shown. Put shortly:
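The N-terminus-lacking fragment of mouse FoxP3 or FoxP1 carried a His6-MBP tag and was expressed in E. coli. At 0.4 µM it was incubated with 0.1 µM Klenow-filled degenerate double-stranded DNA library for 30 min at room temperature in Tris pH 7.5 buffer with NaCl and MgCl2, and complexes were caught on amylose resin, washed three times, released with proteinase K, PCR-barcoded and Illumina-sequenced. Binding is reads-per-million enrichment of pull-down over input with replicates pooled.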
Turning to “GATGATTGTTCTCCCAGCTGATGAATTTGCTGGATCGAGTAAACAAATTTTCCTAATCTTTCTGTTCAAGCGCCATCTAC”, the binding signal is 0.925 RPM ratio (pull-down/input).

Take “GATGATTGTTCTCCCAGCTGATGAATTACTATCGTCGAGTAAACAAATTTTCCTAATCTTTCTGTTCAAGCGCCATCTAC”: the binding signal was 1.05 RPM ratio (pull-down/input).

Take “GATGATTGTTCTCCCAGCTGATGAATTTGCAGAGTCGAGTAAACAAATTTTCCTAATCTTTCTGTTCAAGCGCCATCTAC”: the binding signal is 0.839 RPM ratio (pull-down/input).

“GATGATTGTTCTCCCAGCTGATGAATTGAAGGACTCGAGTAAACAAATTTTCCTAATCTTTCTGTTCAAGCGCCATCTAC”: the binding signal is 0.81 RPM ratio (pull-down/input).

For the sequence “GATGATTGTTCTCCCAGCTGATGAATTATTCCGATCGAGTAAACAAATTTTCCTAATCTTTCTGTTCAAGCGCCATCTAC”, the binding signal is 1.02 RPM ratio (pull-down/input).

Turning to “GATGATTGTTCTCCCAGCTGATGAATTTAGAGTCTCGAGTAAACAAATTTTCCTAATCTTTCTGTTCAAGCGCCATCTAC”, the binding signal was 0.902 RPM ratio (pull-down/input).

Take “GATGATTGTTCTCCCAGCTGATGAATTTCAGAGCTCGAGTAAACAAATTTTCCTAATCTTTCTGTTCAAGCGCCATCTAC”: the binding signal was 0.714 RPM ratio (pull-down/input).

On to “GATGATTGTTCTCCCAGCTGATGAATTCGAGACCTCGAGTAAACAAATTTTCCTAATCTTTCTGTTCAAGCGCCATCTAC”, for which the binding signal is 0.705 RPM ratio (pull-down/input).

On to “GATGATTGTTCTCCCAGCTGATGAATTTGATTATTCGAGTAAACAAATTTTCCTAATCTTTCTGTTCAAGCGCCATCTAC”, for which the binding signal is 1.2 RPM ratio (pull-down/input).

Take “GATGATTGTTCTCCCAGCTGATGAATTGCCGTGATCGAGTAAACAAATTTTCCTAATCTTTCTGTTCAAGCGCCATCTAC”: the binding signal was 0.988 RPM ratio (pull-down/input).

For “GATGATTGTTCTCCCAGCTGATGAATTTCTACGCTCGAGTAAACAAATTTTCCTAATCTTTCTGTTCAAGCGCCATCTAC”, the binding signal is 0.824 RPM ratio (pull-down/input).

On to “GATGATTGTTCTCCCAGCTGATGAATTTTCCTTATCGAGTAAACAAATTTTCCTAATCTTTCTGTTCAAGCGCCATCTAC”, for which the binding signal is 0.987 RPM ratio (pull-down/input).

Turning to “GATGATTGTTCTCCCAGCTGATGAATTATCGGACTCGAGTAAACAAATTTTCCTAATCTTTCTGTTCAAGCGCCATCTAC”, the binding signal was 0.894 RPM ratio (pull-down/input).

On to “GATGATTGTTCTCCCAGCTGATGAATTTCCGATATCGAGTAAACAAATTTTCCTAATCTTTCTGTTCAAGCGCCATCTAC”, for which the binding signal was 0.949 RPM ratio (pull-down/input).

For the sequence “GATGATTGTTCTCCCAGCTGATGAATTCTCGGGCTCGAGTAAACAAATTTTCCTAATCTTTCTGTTCAAGCGCCATCTAC”, the binding signal is 0.757 RPM ratio (pull-down/input).

As for “GATGATTGTTCTCCCAGCTGATGAATTAGTCCCTTCGAGTAAACAAATTTTCCTAATCTTTCTGTTCAAGCGCCATCTAC”, the binding signal is 0.884 RPM ratio (pull-down/input).

On to “GATGATTGTTCTCCCAGCTGATGAATTCGTTCTCTCGAGTAAACAAATTTTCCTAATCTTTCTGTTCAAGCGCCATCTAC”, for which the binding signal was 0.855 RPM ratio (pull-down/input).

In the case of “GATGATTGTTCTCCCAGCTGATGAATTAGTTATTTCGAGTAAACAAATTTTCCTAATCTTTCTGTTCAAGCGCCATCTAC”, the binding signal was 1.29 RPM ratio (pull-down/input).

For the sequence “GATGATTGTTCTCCCAGCTGATGAATTCTGAGGGTCGAGTAAACAAATTTTCCTAATCTTTCTGTTCAAGCGCCATCTAC”, the binding signal is 0.697 RPM ratio (pull-down/input).

On to “GATGATTGTTCTCCCAGCTGATGAATTCGGGACGTCGAGTAAACAAATTTTCCTAATCTTTCTGTTCAAGCGCCATCTAC”, for which the binding signal was 0.836 RPM ratio (pull-down/input).

On to “GATGATTGTTCTCCCAGCTGATGAATTTACTAAGTCGAGTAAACAAATTTTCCTAATCTTTCTGTTCAAGCGCCATCTAC”, for which the binding signal was 1.29 RPM ratio (pull-down/input).

Take “GATGATTGTTCTCCCAGCTGATGAATTAGGTCCTTCGAGTAAACAAATTTTCCTAATCTTTCTGTTCAAGCGCCATCTAC”: the binding signal was 0.924 RPM ratio (pull-down/input).

As to “GATGATTGTTCTCCCAGCTGATGAATTAACATCCTCGAGTAAACAAATTTTCCTAATCTTTCTGTTCAAGCGCCATCTAC”, the binding signal is 0.965 RPM ratio (pull-down/input).

Regarding “GATGATTGTTCTCCCAGCTGATGAATTGAAAAAGTCGAGTAAACAAATTTTCCTAATCTTTCTGTTCAAGCGCCATCTAC”, the binding signal was 0.897 RPM ratio (pull-down/input).

As to “GATGATTGTTCTCCCAGCTGATGAATTCCTCGCCTCGAGTAAACAAATTTTCCTAATCTTTCTGTTCAAGCGCCATCTAC”, the binding signal was 0.847 RPM ratio (pull-down/input).

Turning to “GATGATTGTTCTCCCAGCTGATGAATTATCCAGCTCGAGTAAACAAATTTTCCTAATCTTTCTGTTCAAGCGCCATCTAC”, the binding signal was 0.881 RPM ratio (pull-down/input).

Take “GATGATTGTTCTCCCAGCTGATGAATTTACACCATCGAGTAAACAAATTTTCCTAATCTTTCTGTTCAAGCGCCATCTAC”: the binding signal is 1.3 RPM ratio (pull-down/input).

Take “GATGATTGTTCTCCCAGCTGATGAATTCGCCAGCTCGAGTAAACAAATTTTCCTAATCTTTCTGTTCAAGCGCCATCTAC”: the binding signal is 0.751 RPM ratio (pull-down/input).

“GATGATTGTTCTCCCAGCTGATGAATTATAGAAATCGAGTAAACAAATTTTCCTAATCTTTCTGTTCAAGCGCCATCTAC”: the binding signal was 1.03 RPM ratio (pull-down/input).

With “GATGATTGTTCTCCCAGCTGATGAATTTCTATTTTCGAGTAAACAAATTTTCCTAATCTTTCTGTTCAAGCGCCATCTAC”, the binding signal was 2.01 RPM ratio (pull-down/input).

“GATGATTGTTCTCCCAGCTGATGAATTTTTGAAGTCGAGTAAACAAATTTTCCTAATCTTTCTGTTCAAGCGCCATCTAC”: the binding signal was 0.919 RPM ratio (pull-down/input).

In the case of “GATGATTGTTCTCCCAGCTGATGAATTGCACCTCTCGAGTAAACAAATTTTCCTAATCTTTCTGTTCAAGCGCCATCTAC”, the binding signal is 1.12 RPM ratio (pull-down/input).
